# Experimental data as given in publication PMC7076015.
# The chains behind the UniProt entries cited, without tags or fusion partners. Where a name states a change or a piece, a line headed by the entry shows the natural chain unless it says otherwise.
# UniProt A9QM74: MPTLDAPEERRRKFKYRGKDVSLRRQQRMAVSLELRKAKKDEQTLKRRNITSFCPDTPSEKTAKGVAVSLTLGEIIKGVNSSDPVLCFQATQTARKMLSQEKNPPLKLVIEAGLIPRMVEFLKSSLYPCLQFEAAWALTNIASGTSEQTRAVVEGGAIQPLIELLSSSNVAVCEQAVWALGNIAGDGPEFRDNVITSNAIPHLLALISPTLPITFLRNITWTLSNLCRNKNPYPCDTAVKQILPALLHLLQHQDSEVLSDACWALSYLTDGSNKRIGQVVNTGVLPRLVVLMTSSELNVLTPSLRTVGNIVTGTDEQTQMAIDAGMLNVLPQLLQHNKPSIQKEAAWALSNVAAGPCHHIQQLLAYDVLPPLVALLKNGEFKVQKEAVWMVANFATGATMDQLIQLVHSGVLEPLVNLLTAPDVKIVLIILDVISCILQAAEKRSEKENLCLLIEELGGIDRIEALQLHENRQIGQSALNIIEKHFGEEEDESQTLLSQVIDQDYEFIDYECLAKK
# UniProt Q14974: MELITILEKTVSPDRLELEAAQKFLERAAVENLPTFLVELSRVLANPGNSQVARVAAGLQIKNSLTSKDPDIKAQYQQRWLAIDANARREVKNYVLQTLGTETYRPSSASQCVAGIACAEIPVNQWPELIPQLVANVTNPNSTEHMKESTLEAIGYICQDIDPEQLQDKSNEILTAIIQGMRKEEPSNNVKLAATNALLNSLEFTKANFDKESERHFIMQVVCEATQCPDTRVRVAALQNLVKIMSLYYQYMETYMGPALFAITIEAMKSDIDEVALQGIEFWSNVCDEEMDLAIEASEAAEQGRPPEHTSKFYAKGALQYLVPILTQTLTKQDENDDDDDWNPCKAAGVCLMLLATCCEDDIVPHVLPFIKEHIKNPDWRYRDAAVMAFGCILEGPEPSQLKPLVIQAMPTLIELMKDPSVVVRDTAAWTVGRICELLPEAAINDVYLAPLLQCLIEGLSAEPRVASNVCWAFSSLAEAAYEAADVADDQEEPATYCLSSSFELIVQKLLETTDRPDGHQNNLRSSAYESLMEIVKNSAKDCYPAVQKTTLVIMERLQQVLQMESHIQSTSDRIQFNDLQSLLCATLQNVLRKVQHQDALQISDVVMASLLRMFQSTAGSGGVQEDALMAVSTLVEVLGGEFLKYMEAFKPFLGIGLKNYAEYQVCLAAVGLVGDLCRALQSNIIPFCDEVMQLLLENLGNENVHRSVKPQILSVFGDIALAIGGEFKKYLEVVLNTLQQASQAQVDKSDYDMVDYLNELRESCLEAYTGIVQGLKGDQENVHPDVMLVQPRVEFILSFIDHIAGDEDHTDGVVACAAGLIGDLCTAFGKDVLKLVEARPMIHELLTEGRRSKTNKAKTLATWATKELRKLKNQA
# No constants are given. Whether binding was seen depends on the method and setting. For some of these results: In cells and extracts the contact can be indirect. Some results given as binding are weak or reduced against the parent protein; the word gives no strength. For some of these results: Sequences can lack the tags named with a protein.
# Experiments:
# [1] = molecular target: T1, GST-GFP-hnRNP R bipartite NLS (UniProt O43390); assay: pull-down; GST-GFP NLS fusions on glutathione resin (1 μg/μl), 35S-methionine-labeled in vitro translated Imp-α isoforms (125,000 cpm); 25 mM Tris pH 7.5, 50 mM NaCl, 5 mM MgCl2, 0.1% NP-40, 3 hours at 4 °C; autoradiography; only the target purified
# T1 sequence: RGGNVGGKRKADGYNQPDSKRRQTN
# [2] = molecular target: MBP-KPNA7 (wild type) (human) (UniProt A9QM74); assay: pull-down; MBP fusion proteins on amylose resin, incubated with the indicated concentrations of Imp-β; amylose column buffer, 4 °C; western blot; both purified
# MBP-KPNA7(E344Q) (human) = MBP-KPNA7(E344Q) (human) (UniProt A9QM74); assay: as above
# MBP-KPNA7(P339A) (human) = MBP-KPNA7(P339A) (human) (UniProt A9QM74); assay: as above
binding [1],binding [2],binding (MBP-KPNA7(E344Q) (human)),binding (MBP-KPNA7(P339A) (human)),Substance
binds,,,,35S-labeled KPNA7 (in vitro translated) (from UniProt A9QM74 1-516) (receptor)
,binds,binds,binds,Importin β (from UniProt Q14974 1-876) (receptor)
